Results from PubChem BioAssay AID463173 (ICCB-Longwood Screening Facility, Harvard Medical School, 2010).
Among all 52,000 compounds or so, about 4,300 (8.3%) were called active. No stated cut-off is given here; in the data, active means survival mostly below about 52% (no sharp cut-off); inactive means mostly above about 56%. The list shows a part of the results.

The compounds below were run on DeltatarO mutant (assay: S. aureus survival, RN4220 and DeltatarO strains – OD600, teichoic acid synthesis inhibitors, primary screen (AID 463173)). Conditions: S. aureus RN4220 wild type/DeltatarO growth, OD600, 18 h, active compounds read low, screened at 18.75 µg/mL (by protocol).

| Structure (SMILES) | survival |
| --- | --- |
| Cc1ccc(C(C)C)c(OCCn2cc(C(=O)c3ccco3)c3ccccc32)c1 | active: 35% |
| O=C(Nc1cc(Cl)cc(Cl)c1)c1ccc(F)c(S(=O)(=O)N2CCCCCC2)c1 | inactive: 124% |
| CCOc1ccc(-c2n[nH]c3c2C(c2ccccc2OC)N(c2ccc(Br)cc2)C3=O)cc1 (configuration not stated) | inactive: 69% |
| COc1ccc(NC(=O)c2ccco2)cc1NC(=O)COc1cc(C)cc(C)c1 | inactive: 121% |
| CCC(=O)N1CCc2cc(Br)cc(S(=O)(=O)N3CCN(c4ccccc4)CC3)c21 | inactive: 73% |
| CCc1nnc2c(NCc3ccc(F)cc3)nc3ccccc3n12 | inactive: 127% |
| O=c1/c(=C/c2ccc(Br)cc2)sc2nncn12 | inactive: 95% |
| CCn1c(SCCN2CCCC2)nnc1C1CCCN(S(C)(=O)=O)C1 (configuration not stated) | inactive: 92% |
| COc1ccc(CNC(=O)C2CCCN(S(=O)(=O)c3ccc4c(c3)CCCN4C(C)=O)C2)cc1 (configuration not stated) | inactive: 78% |
| CCOc1ccc2nc(N3CCCC(C(=O)Nc4ccc(Br)c(C)c4)C3)sc2c1 (configuration not stated) | inactive: 75% |
| CCOC(=O)c1c(C)oc2ncnc(NCCc3ccccc3)c12 | inactive: 78% |
| CCc1ccc(N2CCn3c2nc2c3c(=O)n(Cc3cccc(C)c3)c(=O)n2C)cc1 | inactive: 76% |
| COc1ccc(C2c3c(n(C)c4ccccc34)C(=O)N2CC(=O)Nc2ccc(Cl)cc2)cc1 (configuration not stated) | inactive: 62% |
| COc1cc2nc(SCC(=O)Nc3ccc(F)cc3)n3nc(CCn4c(C)nc5ccccc54)nc3c2cc1OC | inactive: 103% |
| Cc1ccc(OC(=O)c2snnc2C)cc1C | inactive: 112% |
| CCCN1CCN(CCNC(=O)Nc2cc(OC)cc(OC)c2)CC1 | inactive: 88% |
| Cc1ccc(NC(=O)C(=O)NCC(c2ccc3c(c2)OCO3)N2CCOCC2)c(C)c1 (configuration not stated) | inactive: 79% |
| O=C(CSc1ncc2c(n1)-c1ccccc1N(Cc1ccc(F)cc1)S2(=O)=O)c1ccc(Br)cc1 | inactive: 65% |
| COc1cc2c(=O)n(Cc3ccccc3)c(=O)n(CC(=O)Nc3cc(C(F)(F)F)ccc3Cl)c2cc1OC | inactive: 151% |

| Structure (SMILES) | survival |
| --- | --- |
| O=C(Cn1cccc1C(=O)c1ccccc1)NCc1ccc(F)cc1 | inactive: 97% |
| CN1C(C(=O)Nc2ccc(OC(F)(F)F)cc2)=CC(c2ccc3c(c2)OCO3)=NS1(=O)=O | inactive: 80% |
| CC(C)c1cc(N)cc(C(C)C)c1O | inactive: 84% |
| COC(=O)c1cc2oc(C)cc2n1Cc1c(C)cc(C)cc1C | inactive: 46% |
| CCN(CC)c1ccc(NS(=O)(=O)c2ccc3c(c2)CCCN3C(C)=O)c(C)c1 | inactive: 79% |
| COc1ccccc1NC(=O)CN(c1ccc(C(C)C)cc1)S(=O)(=O)c1c(C)noc1C | inactive: 78% |
| N#Cc1ccc(C(=O)N2CCN(c3nc4ccc(F)cc4s3)CC2)cc1 | inactive: 72% |
| O=C(NC1CCCCC1)c1ccc2c(c1)sc1nc(-c3ccccc3)cn12 | inactive: 69% |
| CCN(CC)CCN(C(=O)c1ccco1)c1nc2c(C)cccc2s1 | inactive: 77% |
| COc1cc2c(cc1OC)C(c1ccc(Cl)cc1)N(c1ccc(C)c(F)c1)C(=O)C2 (configuration not stated) | active: 42% |
| COc1ccc(-c2oc3ncn4nc(-c5ccc(Cl)cc5)nc4c3c2-c2ccc(OC)cc2)cc1 | inactive: 74% |
| CC(C)c1ccc(OCc2cc(=O)n3c4c(sc3n2)CCCC4)cc1 | inactive: 73% |
| Cc1cccc(NC(=O)CSc2nc3ccc(NC(=O)c4cccs4)cc3s2)c1 | inactive: 65% |
| COc1ccc(OCC(=O)Nc2cc(-c3cccc(Cl)c3)nn2-c2ccccc2)cc1 | inactive: 83% |
| O=C(CSc1nc(-c2ccccc2)cc(=O)[nH]1)c1ccccc1 | inactive: 94% |
| COC(=O)c1ccccc1NC(=O)CSc1nnnn1-c1ccc2c(c1)OCO2 | inactive: 91% |
| Cc1ccc(NC(=O)Cn2c(-c3ccc4c(c3)OCO4)cn(-c3ccccc3)c2=O)cc1 | inactive: 68% |
| COc1ccc(-c2c3c(=O)n(C)c(=O)n(C)c3c3c(-c4ccc(C)cc4)nc4ccccc4n23)cc1 | inactive: 82% |
| CCCCCNC(=O)C(=O)NCC(c1ccc2c(c1)OCO2)N1CCOCC1 (configuration not stated) | inactive: 72% |

| Structure (SMILES) | survival |
| --- | --- |
| CCC(C(=O)Nc1cccc(C#N)c1)n1c(=O)c(-c2ccccc2NC(C)=O)nc2ccccc21 (configuration not stated) | inactive: 100% |
| Cc1ccc(CSc2nc(=O)c3c(n2C)NC(=O)CC3c2ccc(OC(C)C)cc2)cc1 (configuration not stated) | inactive: 50% |
| CCN1CCC(N(Cc2cccc(OC)c2)C(=O)Nc2ccc(C)cc2Cl)CC1 | inactive: 66% |
| Cc1ccc(S(=O)(=O)Nc2cc3c(cc2N2CCOCC2)n(C)c(=O)n3C)c(C)c1 | inactive: 84% |
| Cc1ccc(Nc2nc(C(=O)NCc3ccco3)cs2)cc1 | inactive: 93% |
| Cc1nnc(NC(=O)CCCN2C(=O)/C(=C/c3cccs3)SC2=S)s1 | inactive: 55% |
| Cc1ccc2oc(=O)c3cc(C(=O)N(Cc4ccccc4)C(C)C)sc3c2c1 | inactive: 87% |
| COc1ccc(CNC(=O)CC2N=C3c4ccccc4N=C(SCC(=O)Nc4ccc(N(C)C)cc4)N3C2=O)cc1 (configuration not stated) | inactive: 82% |
| Cc1ccc(CN2c3ccccc3S(=O)(=O)c3ccccc32)cc1 | inactive: 83% |
| COc1cc(CN(C(=O)COc2ccc(C)c(C)c2)c2ccccn2)cc(OC)c1OC | inactive: 71% |
| COc1ccc(NC(=O)CN(Cc2ccccc2)S(=O)(=O)c2ccc3nc(C)sc3c2)cc1 | inactive: 83% |
| CCCN(CCC)CCNC(=O)c1cc2c(-c3ccccc3F)nn(C)c2s1 | inactive: 107% |
| CCN(CC)C(=O)CSc1nnc2c(n1)[nH]c1ccc(C(C)C)cc12 | inactive: 116% |
| COc1cccc(CN(CCO)Cc2ccccc2)c1OC | inactive: 91% |
| Cc1ccc(S(=O)(=O)CCSc2nc(C)cc(C)c2C#N)cc1 | inactive: 53% |
| COc1cc(NC(=O)c2cnn(-c3cccc(F)c3)c2C2CCNCC2)cc(OC)c1OC | inactive: 102% |
| CCOC(=O)c1cc2c(ccn2-c2ccc(F)cc2)n1CC(=O)N1CCc2ccccc21 | inactive: 100% |
| Cc1cc(C)nc(SC2CCCCC2=O)n1 (configuration not stated) | inactive: 104% |
| CCc1nnc(NC(=O)CSCc2cc(=O)c3ccc(C)cc3[nH]2)s1 | inactive: 98% |
